# ± gives the standard deviation of the averaged measurements. The list shows a part of the results.
# System: PfAP2-G AP2 domain (GST-tagged)
# Test: gcPBM binding intensity (ln(normalized median fluorescence intensity)); higher = stronger DNA binding
# Summary of the method: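 GST-tagged P. falciparum DNA-binding domains, expressed in E. coli (about 25 μg on average), were applied for 1 h to an Agilent 4 × 180k array of primer-extended double-stranded 36-bp intergenic genomic probes plus negative controls. The binding buffer was 1× PBS with 1% milk, 0.2 mg/ml BSA, 0.5% salmon testes DNA and 0.03% Triton X-100. Bound protein was detected with Alexa488 anti-GST antibody and scanned at 488 nm. Binding intensity is the highest Masliner-normalised natural-log median intensity across replicate spots of either probe orientation.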
row,Sequence,gcPBM binding intensity (ln)
1,AGACATATAATATATACACACATATATATATATATA [CACACA_site1066],9.94 ± 0.23
2,TATAAACATAAATATACACACAAACATATATGTATT [CACACA_site8324],9.895 ± 0.021
3,ATATTTGCCCAAGATAGTACATATATATATATATAT [XGTACX_site7756],11 ± 0.58
4,ATCAACATCTAACATTGTACATGTGATGTGTAAAAG [XGTACX_site547],10.8 ± 0.47
5,AATTCTCTTAATAAATAAACACAAATAAATAATAAA [GTGCAC_negctrl_site499],9.77 ± 0.13
6,CATACATACAAACACACACACACACCGATATATATA [CACACA_site8952],10 ± 0.2
7,CACATACAGACATACACACACATATATATTAATATA [CACACA_site546],10.3 ± 0.3
8,ATATTGGAGCACAACACACACAAGTATATATATGGA [CACACA_site1546],10.4 ± 0.39
9,AAATAGCCAAAAATCATGCACACCTAAAAAAAAAAA [CACACA_site2572],10.1 ± 0.17
10,TATATATATATATATTGTACATATATTATTATATAT [XGTACX_site7447],10.9 ± 0.53
11,TTAATTTACATGAACTGTACATAACATTTTTTTAAA [XGTACX_site4672],11 ± 0.59
12,ATCAAAATATTTATATGTACATATTAAAAATATAGA [XGTACX_site725],11.2 ± 0.79
13,TATATAATAAAAAAAAGTACTTGGACAATATTATTT [XGTACX_site2802],11.4 ± 0.84
14,TAATAAAGTGAATAATGTACATTTTATTTATTATAT [XGTACX_site6614],10.9 ± 0.41
15,ATTATATATCCCTATTCACACATGTATTATATAAAT [CACACA_site5486],10.2 ± 0.12
16,GAAAAATTAAAAATAACACACACATATATATATTTA [CACACA_site8896],9.83 ± 0.071
17,AAGGAAATATAATATACACACATAAGTGTACTTATA [CACACA_site4030],11.6 ± 1.1
18,CCTATATTAAAACAAGCACACAATCGCATAATATCC [CACACA_site9052],10.12 ± 0.014
19,TCAGTAATACTTGAATGTACTTATATTGTTTGTTTG [XGTACX_site6449],11.2 ± 0.69
20,AAAAAAATTAAATGTACACACACCTTAAACAATGTC [CACACA_site1855],11.4 ± 0.73
21,TTAACATATTTGTTAGTGCATTTTGATATTACACAT [GTGCAC_site9978],9.895 ± 0.021
22,AATGCCTTGTTGAGGTGTACTGAATGTTATTTTAAT [XGTACX_site3255],11.1 ± 0.59
23,TTTTTTTAAAGAATTATCATAAAATGATTGCATCAT [XGTACX_negctrl_site141],9.545 ± 0.007

row,Sequence,gcPBM binding intensity (ln)
1,ATAAATAAATAAATAAATAAATAAATAAATATATAT [CACACA_negctrl_site1728],9.545 ± 0.049
2,ATTTATTTTATATGTTGTACAAACATTTTAAAACAT [XGTACX_site6919],11.2 ± 0.62
3,TCTTTTTCTTGACGAGTGCAAAAATTGTGTTTGAAA,10.3 ± 0.32
4,CTAATATCTGTATGCACACACAATAAATACATATTT [CACACA_site5797],10.09 ± 0.042
5,TGTGTATTTATAAATACACACCAAATGTTAATATAT [CACACA_site6904],10.2 ± 0.21
6,GTAAAATGATATAAATGTACATAATATATATATGTC [XGTACX_site4049],10.9 ± 0.45
7,ATTTTATCTTTAAACTGTACGTATTAATATGTAGAA [XGTACX_site3077],11.7 ± 1.1
8,ATAAAAATATTATAAGCACACATATATATATATATA [CACACA_site8781],10.2 ± 0.58
9,AGTATACATATATATACACACATATATATATATATA [CACACA_site300],10.1 ± 0.52
10,TGTCATATTATAAATTGTACAAATAGTATAATTATT [XGTACX_site581],11 ± 0.61
11,TTATGCCTTTAATATACACACTAATATTTTTTTGGC [CACACA_site5171],9.895 ± 0.021
12,AATTTTTTTTTTAGACGTACAAGAAAAAACAAAAAA [XGTACX_site4990],11.7 ± 0.75
13,TATATGAAGTACACAATACACACTAATTATATATAA [CACACA_site2608],11.5 ± 1
14,AACTATAAAAATTTTACACACTGTTTTTAAATAATG [CACACA_site5928],10.085 ± 0.007
15,TTATGTTCTTTAAAACCACACACCCCCCAACCCCCC [CACACA_site8742],11.6 ± 0.87
16,TATATATGCATATACATACACACATAACACATACGT [CACACA_site3833],10.03 ± 0.028
17,AATGTTTTATTTTGAAGTACATTTAAGAATTTTTTA [XGTACX_site7814],11.2 ± 0.67
18,ATATAATAATAAGGCACACAAATTAAAATATAAAAA [CACACA_site3710],10.2 ± 0.16
19,TATGAAATTATAATTACACACAGGAAAATAAAATGT [CACACA_site1517],10.3 ± 0.15
20,TAAATTTTTTCCTCCTGTACTTATTATATTTTTTTG [XGTACX_site1572],11.4 ± 0.9
21,ATTAATTCGTTTTGTACACACATAATGAGTAATTTA [CACACA_site7118],11.2 ± 0.78
22,TTTTGACCATATCTGTTGCACTTTTGTGCTATTCGA,10.6 ± 0.41
23,CATTATGTCGTAAATACACACATACATATACATACA [CACACA_site8383],10.3 ± 0.23

row,Sequence,gcPBM binding intensity (ln)
1,AAGGATCACAGACAAACACACATATATATATATATA [CACACA_site4469],10.1 ± 0.38
2,AAATAATTTGTTGACACACACACACCCATACAGATA [CACACA_site5291],10.5 ± 0.38
3,AGCCAAACCTTAAATTTAGCAATAAGTTTACAGGTC [CACACA_negctrl_site360],9.68 ± 0.23
4,ATTAAAAGTTTATACAAATAAAAAACAAAACAAAAA [CACACA_negctrl_site1030],10.1 ± 0.33
5,ATAAAAATTGATTATACACACGCGCCCAGACAACAA [CACACA_site5870],11.1 ± 0.49
6,ATATAGATGCATAATACACACATCAGATAATTAACC [CACACA_site6871],10.03 ± 0.078
7,TTTTTTTTTTTTTTTTGTACTCATATCTACTATCAT [XGTACX_site274],11.2 ± 0.97
8,ACAAGGTTTACGGGTAGTACAAATTTTTGAACATCT [XGTACX_site4739],11.5 ± 0.69
9,TTTTTTCTTTTTTTTTGTACATATAATATTTATGTT [XGTACX_site302],10.9 ± 0.42
10,ATATATATATGTATATGTACATATATATGGTAACTC [XGTACX_site681],11.2 ± 0.73
11,AAAAGAAAAAAAAAAAAAAAAAAAATTAAAATATAA [CACACA_negctrl_site17],9.37 ± 0.057
12,TAATGGTTATCACTAACATGCAGTAATATTATATAG [TGCATGCA_site176],9.885 ± 0.021
13,TCGTATTTAAAATGTAGTACATAATTTGAAAAATAA [XGTACX_site5832],11.6 ± 0.83
14,ATATAATATTTATATGCACACTTTTCTATATATAAG [CACACA_site6100],10.05 ± 0.057
15,TAAAATATTATTTATTTACACACCAATCTTCTTTTC [CACACA_site9320],9.815 ± 0.078
16,ATAAGAAAAAGACACACACACAAAAAAAAAAAAAAA [CACACA_site2828],9.95 ± 0.49
17,TAAATAAATTATTTTCGTACTTATTTATTTTAATTA [XGTACX_site283],10.8 ± 0.6
18,CTTAGGTTAAAAGTGTGTACATAAAAACATATATAA [XGTACX_site2213],11.5 ± 0.87
19,TACTATTATAAATATGTGCACTTCAATAATATACTA,10.3 ± 0.27
20,AAGTTATTGATATATACACACAAATATAAATAATAT [CACACA_site6695],10.05 ± 0.085
21,AATACATATCAAAGCTGTACAAAGTAAATTTTACTT [XGTACX_site3525],10.8 ± 0.59
22,TTCAATAGGTATAATTGTACTTAATAATATATTGTT [XGTACX_site8363],11.1 ± 0.73
23,AAAAAAAAAAAACACACACACAAATACAAATGGTAA [CACACA_site1720],9.995 ± 0.021

row,Sequence,gcPBM binding intensity (ln)
1,AAAAAAAAAATATACACACACATATAAATATAAATA [CACACA_site7574],9.855 ± 0.007
2,AAATAAAAAACAGTGGCACACATTATGTATCCACCT [CACACA_site3756],10.5 ± 0.26
3,TTAAAGTAGAGAAAATGTACATTTTATTAACACAAT [XGTACX_site6369],10.9 ± 0.45
4,TAAATTCCTACATACGCATGTACATTAAAATTTTAA [TGCATGCA_site215],11.1 ± 0.69
5,AAAATAAAAAGAAAAAGAAAAAAGGGGGGGTAGGGG [CACACA_negctrl_site1048],11.4 ± 0.88
6,CTTTAAGTTATATGAAGTACAATTTAAAAAAATGAA [XGTACX_site358],11.2 ± 0.75
7,TACAGATACAGATACACACACACACCGAAATAAATA [CACACA_site4865],10.2 ± 0.4
8,ATACATTCAATGAAATGTACGTTTATTTACAGAAGA [XGTACX_site2999],11.2 ± 0.76
9,TATATATACATACATACACACATATATATATATATT [CACACA_site4110],10.02 ± 0.028
10,GAAAGGATATATATATATATATATATAATACATTTC [GTGCAC_negctrl_site677],9.455 ± 0.007
11,ACATATAATATATAATGTACAAAATTGTTAACAATA [XGTACX_site3798],10.7 ± 0.39
12,GATGAAAATAGAAATACACACTAAAAAATAAAATTA [CACACA_site4764],10.02 ± 0.099
13,TGCATACTTTTGTAAGTGCATAAAATCGTACCATGC,10.8 ± 0.52
14,GAAATAATTCGATGTGCATGTAACGTTTCCCCAAAG [TGCATGCA_site122],10.3 ± 0.22
15,AAGAGAAAAATATATACACACACATAAATATATACA [CACACA_site8573],9.9 ± 0.085
16,AAGGGGTAAAGAAAAACACACAAAAAATAAAAATAT [CACACA_site361],10.2 ± 0.35
17,CGTATTTATATAATTACACACCATATTATAATTATT [CACACA_site3760],10 ± 0.16
18,CCAAAAAAAAAAAAAAGTACATAAAAACAAGAGAAT [XGTACX_site3037],11.5 ± 0.9
19,AATTAAAAAAAATACACACACACATACACATATATA [CACACA_site3298],10.2 ± 0.22
20,TAGAAGCATGGACACACACACATACATACCCATACA [CACACA_site4916],10.9 ± 0.58
21,TTATTTTTCCGGAATAGTACATAGACGCAGATATAA [XGTACX_site6356],11.2 ± 0.68

# Reference: the supplement of paper PMC11417369
